Results taken from patent US20200048358A1 (ALLIGATOR BIOSCIENCE, published 2020).

Experiments:
[1] = target: CTLA-4 (BMS, Orencia) (human, UniProt P16410 38-152); assay: cell-based or functional assay
[2] = target: T1, CTLA-4 expressed on cells (CHO P4 cells with OX40 and CTLA4); HEK-CTLA4 cells; ADCC target cells; Jurkat … (Homo sapiens (Human), UniProt P16410 38-152); assay: cell-based or functional assay
[3] = target: T1, CTLA-4 expressed on cells (CHO P4 cells …); assay: flow cytometry on CHO P4 cells expressing both OX40 and CTLA-4, detection PE-conjugated anti-human IgG; the cells carry both targets of the bispecific

B1: bispecific molecule 1514/1581 (bispecific antibody, human IgG1, kappa)
heavy: EVQLLESGGGLVQPGGSLRLSCAASGFTFGYYYMSWVRQAPGKGLEWVSGISSYGSYTYYADSVKGRFTISRDNSKNTLYLQMNSLRAEDTAVYYCARSGYSNWANSFDYWGQGTLVTVSS[sequence of human IgG1 constant region omitted]
light: DIQMTQSPSSLSASVGDRVTITCRASQSISSYLNWYQQKPGKAPKLLIYAASSLQSGVPSRFSGSGSGTDFTLTISSLQPEDFATYYCQQGDYTLFTFGQGTKLEIKRTVAAPSVFIFPPSDEQLKSGTASVVCLLNNFYPREAKVQWKVDNALQSGNSQESVTEQDSKDSTYSLSSTLTLSKADYEKHKVYACEVTHQGLSSPVTKSFNRGECSGGGGSGGGGSAPLKIQAYFNETADLPCQFANSQNLSLSELVVFWQDQENLVLNEVYLGKERFDSVDSKYMGRTSFDSDSWTLRLHNLQIKDKGRYQCIIHHKKPTGMINIHQMNSELSVLA
- Mean IL-2 level (pg/ml) induced at 1.5 nM bispecific antibody or control [1]: 5110 pg/mL

B2: bispecific OX40-CTLA-4 antibody 1166/1261 (bispecific antibody, human IgG1, kappa)
heavy: EVQLLESGGGLVQPGGSLRLSCAASGFTFGGYYMSWVRQAPGKGLEWVSAISGSGGSTYYADSVKGRFTISRDNSKNTLYLQMNSLRAEDTAVYYCARYDYASMDYWGQGTLVTVSS[sequence of human IgG1 constant region omitted]
light: DIQMTQSPSSLSASVGDRVTITCRASQSISSYLNWYQQKPGKAPKLLIYAASSLQSGVPSRFSGSGSGTDFTLTISSLQPEDFATYYCQQYYWYGLSTFGQGTKLEIKRTVAAPSVFIFPPSDEQLKSGTASVVCLLNNFYPREAKVQWKVDNALQSGNSQESVTEQDSKDSTYSLSSTLTLSKADYEKHKVYACEVTHQGLSSPVTKSFNRGECSGGGGSGGGGSAPLKIQAYFNETADLPCQFANSQNLSLSELVVFWQDQENLVLNEVYLGKERFDSVDSKYMGRTSFDSDSWTLRLHNLQIKDKGRYQCIIHHKKPTGMINIHQMNSELSVLA
- Fold-induced ADCC (FcγRIIIa V158 Jurkat NFAT-luciferase reporter; target cells expressing both OX40 and CTLA4) [2]: ~123 fold
- Mean IL-2 level (pg/ml) induced at 1.5 nM bispecific antibody or control [1]: 4290 pg/mL
- EC50 (read off the curve) [3]: ~20 nM
